Reference: publication PMC8526568
Where two headings read alike, the source gives them in different places. Results are given in words; binding and its absence hold for the method and conditions named. Binding seen in cells or lysates may run through a third protein. Some entries that bind do so weakly or less than the wild type.

Protein sequences, listed by entry. Tags and fused reporters are not part of them.
UniProt P49915: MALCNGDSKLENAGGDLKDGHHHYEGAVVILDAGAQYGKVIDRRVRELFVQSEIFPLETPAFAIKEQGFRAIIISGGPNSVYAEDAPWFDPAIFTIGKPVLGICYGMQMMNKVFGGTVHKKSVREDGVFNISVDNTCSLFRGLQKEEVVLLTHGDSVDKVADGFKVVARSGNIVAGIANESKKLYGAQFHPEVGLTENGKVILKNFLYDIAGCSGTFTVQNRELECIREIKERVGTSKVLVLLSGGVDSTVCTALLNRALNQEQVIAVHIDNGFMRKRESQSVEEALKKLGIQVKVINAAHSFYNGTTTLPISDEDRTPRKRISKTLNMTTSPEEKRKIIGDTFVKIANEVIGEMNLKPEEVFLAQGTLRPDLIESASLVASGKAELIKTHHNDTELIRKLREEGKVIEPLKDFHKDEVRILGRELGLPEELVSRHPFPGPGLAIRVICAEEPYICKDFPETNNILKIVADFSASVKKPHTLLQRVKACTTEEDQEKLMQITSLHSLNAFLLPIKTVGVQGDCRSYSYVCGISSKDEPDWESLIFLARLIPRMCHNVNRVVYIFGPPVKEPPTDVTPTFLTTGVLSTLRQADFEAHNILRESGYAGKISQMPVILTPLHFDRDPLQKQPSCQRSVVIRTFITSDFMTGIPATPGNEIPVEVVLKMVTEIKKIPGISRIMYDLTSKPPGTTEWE

Experiments:
[1] = molecular target: inosine monophosphate dehydrogenase 2 (IMPDH2), endogenous (human (endogenous in MDA-MB-231 and SK-Mel-103)) (UniProt P12268); assay: co-IP; endogenous proteins of MDA-MB-231 and SK-Mel-103 cells (transduced with control or RAC1 shRNA); immunoprecipitation with control IgG, IMPDH2- or RAC1-specific antibodies, immunoblotting
[2] = molecular target: inosine monophosphate dehydrogenase 2 (IMPDH2), endogenous (human (endogenous in MDA-MB-231 and SK-Mel-103)) (UniProt P12268); assay: as above; remark: listed apart in the source

Molecule	binding [1]	binding [2]
CDC42, endogenous (from UniProt P60953 1-191)	no binding	
guanosine monophosphate synthase (GMPS), endogenous (from UniProt P49915 1-693) (enzyme)	binds	

Now from value to molecule:

binding [1]	binding [2]	Molecule
binds		RHOA, endogenous (from UniProt P61586 1-193)
binds		NME1 (nucleoside diphosphate kinase family member), endogenous (from UniProt P15531 1-152) (enzyme)
	binds	GMP reductase (GMPR), endogenous (enzyme, UniProt P36959 1-345) MPRIDADLKLDFKDVLLRPKRSSLKSRAEVDLERTFTFRNSKQTYSGIPIIVANMDTVGTFEMAAVMSQHSMFTAIHKHYSLDDWKLFATNHPECLQNVAVSSGSGQNDLEKMTSILEAVPQVKFICLDVANGYSEHFVEFVKLVRAKFPEHTIMAGNVVTGEMVEELILSGADIIKVGVGPGSVCTTRTKTGVGYPQLSAVIECADSAHGLKGHIISDGGCTCPGDVAKAFGAGADFVMLGGMFSGHTECAGEVFERNGRKLKLFYGMSSDTAMNKHAGGVAEYRASEGKTVEVPYKGDVENTILDILGGLRSTCTYVGAAKLKELSRRATFIRVTQQHNTVFS
